Test results published in the supplement of paper PMC10126150.
Sequences with one replicate were seen in a single cluster, so their values are uncertain.

System: ATP
Assay: switch fluorescence ratio, 500 uM ATP over buffer (Cy3 cluster intensity, sum of 5 cycles each) (fold (ratio)); higher = stronger signal-on switching upon ATP binding; sequences stand for … in TCGTCGGCAGCGTCAGATGTGTATAAGAGACAGTTTTTTTTTTTTTTTTTTTTTTTTT…TC
Settings: aptamer strand: ATP DNA aptamer (quencher-CACCTGGGGGAGTATTGCGGAGGAAGG + anchor), 100 nM annealed; ATP concentration: 500 uM; one replicate
Outline: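 Cy3-labelled switching-strand clusters on a modified Illumina MiSeq flow-cell were annealed to 100 nM quencher-labelled ATP aptamer and imaged first in selection buffer, then after 15 min with 500 uM ATP at 22 °C. NaOH stripping and re-annealing separated each of five buffer/ATP cycles, and clusters outside 100-1000 RFU were excluded. The fluorescence ratio sums target-cycle Cy3 intensity over buffer-cycle Cy3 intensity per cluster and averages it per switch-domain sequence.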
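Note: ATP exposure 15 min at 22 °C before imaging.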

Q: AATCGGCTAA was tested. Which switch fluorescence ratio did it give?
A: 1.01

Q: Which switch fluorescence ratio does the source give for CTCTTCCAGT here?
A: 1.06

Q: How did the switch fluorescence ratio turn out when AAATACCGCT was run?
A: 1.33

Q: How did the switch fluorescence ratio turn out when AGCTTACTTC was run?
A: 1.34

Q: Which switch fluorescence ratio does the source give for ACGGGGAGAC here?
A: 0.999

Q: With TTACAGTTTC as the sequence, how does the switch fluorescence ratio read?
A: 1.07

Q: How did the switch fluorescence ratio turn out when AATGTTTTGC was run?
A: 1.08

Q: TAGCGTATGT was tested. Which switch fluorescence ratio did it give?
A: 1.02

Q: How did the switch fluorescence ratio turn out when GCTATTACGG was run?
A: 1.06

Q: ATAGGTATTA was tested. Which switch fluorescence ratio did it give?
A: 0.971

Q: With TTCGGACACC as the sequence, how does the switch fluorescence ratio read?
A: 0.959

Q: For AATATAGGGC, which switch fluorescence ratio is on record?
A: 1.05

Q: Which switch fluorescence ratio does the source give for CCCGTTAGT here?
A: 1

Q: For TTTTCATTGA, which switch fluorescence ratio is on record?
A: 1.02

Q: How did the switch fluorescence ratio turn out when GGCATCTGTT was run?
A: 0.988

Q: For ACTACACGCA, which switch fluorescence ratio is on record?
A: 1.19

Q: For TCATCAGTTT, which switch fluorescence ratio is on record?
A: 1.04

Q: Which switch fluorescence ratio does the source give for AAGCACCTGA here?
A: 1.14

Q: TCAGAGCT was tested. Which switch fluorescence ratio did it give?
A: 0.98

Q: TTTGCCAAGT was tested. Which switch fluorescence ratio did it give?
A: 1.01

Q: With TAAAGCGAT as the sequence, how does the switch fluorescence ratio read?
A: 1.05

Q: For ATTAAGGATC, which switch fluorescence ratio is on record?
A: 1.02

Q: GGCCGGCACC was tested. Which switch fluorescence ratio did it give?
A: 0.947

Q: Which switch fluorescence ratio does the source give for CGGGCGTATG here?
A: 0.981

Q: How did the switch fluorescence ratio turn out when AAACGTGATG was run?
A: 1

Q: For CGTATCAATC, which switch fluorescence ratio is on record?
A: 1.5

Q: Which switch fluorescence ratio does the source give for CTAGTCGGTA here?
A: 1

Q: How did the switch fluorescence ratio turn out when GGGACCTCAA was run?
A: 0.98

Q: Which switch fluorescence ratio does the source give for AGGCCTAATG here?
A: 0.981

Q: With CATAGTCAAT as the sequence, how does the switch fluorescence ratio read?
A: 1.3

Q: For GTCGGGGGAG, which switch fluorescence ratio is on record?
A: 0.998

Q: TAGCGCACGA was tested. Which switch fluorescence ratio did it give?
A: 1

Q: For CTACCAGTTG, which switch fluorescence ratio is on record?
A: 1.19

Q: Which switch fluorescence ratio does the source give for CTTATCGGAA here?
A: 1.09

Q: Which switch fluorescence ratio does the source give for GCAAGTCTGG here?
A: 0.975

Q: TTGTGTGCGC was tested. Which switch fluorescence ratio did it give?
A: 0.974

Q: How did the switch fluorescence ratio turn out when TCCGCATGGA was run?
A: 2.02

Q: How did the switch fluorescence ratio turn out when CCCACCCAAG was run?
A: 1.16

Q: With GCAAGAGGGC as the sequence, how does the switch fluorescence ratio read?
A: 1.06

Q: TTAGTCGGGG was tested. Which switch fluorescence ratio did it give?
A: 0.986

Q: How did the switch fluorescence ratio turn out when AGAGGGTGGC was run?
A: 1.15

Q: How did the switch fluorescence ratio turn out when AAAGTTGACG was run?
A: 1.02

Q: Which switch fluorescence ratio does the source give for ATTAATAACG here?
A: 1

Q: With CTTTTTTC as the sequence, how does the switch fluorescence ratio read?
A: 1.02

Q: For CTGTTAGCAC, which switch fluorescence ratio is on record?
A: 1.7

Q: ATACCGTTTG was tested. Which switch fluorescence ratio did it give?
A: 1.01

Q: With GTTCTAACTT as the sequence, how does the switch fluorescence ratio read?
A: 1.01

Q: TGCCGTTCA was tested. Which switch fluorescence ratio did it give?
A: 0.997

Q: For AAGCATTGTC, which switch fluorescence ratio is on record?
A: 0.977

Q: With CGGCATCTTC as the sequence, how does the switch fluorescence ratio read?
A: 1.01

Q: With TCTTGCTATG as the sequence, how does the switch fluorescence ratio read?
A: 1.03

Q: TGTGAATCGG was tested. Which switch fluorescence ratio did it give?
A: 0.993

Q: How did the switch fluorescence ratio turn out when TTCTCGGGAA was run?
A: 1.06

Q: With AGAGGCTCCC as the sequence, how does the switch fluorescence ratio read?
A: 1.04

Q: How did the switch fluorescence ratio turn out when CAGCAAAT was run?
A: 1.02

Q: How did the switch fluorescence ratio turn out when TGAGAACTCT was run?
A: 0.96

Q: How did the switch fluorescence ratio turn out when TGGGGTTCCA was run?
A: 0.983

Q: AATAGACAAG was tested. Which switch fluorescence ratio did it give?
A: 0.945

Q: With ATGGGATTTC as the sequence, how does the switch fluorescence ratio read?
A: 0.99

Q: With AAAGGTTGTA as the sequence, how does the switch fluorescence ratio read?
A: 0.98

Q: How did the switch fluorescence ratio turn out when CTGCGCGTTA was run?
A: 1.12

Q: For GGGTGGCATG, which switch fluorescence ratio is on record?
A: 0.975

Q: GTCTTTTGAG was tested. Which switch fluorescence ratio did it give?
A: 0.961

Q: With ATATTACGGT as the sequence, how does the switch fluorescence ratio read?
A: 1.07

Q: Which switch fluorescence ratio does the source give for GACACTGTGC here?
A: 1.06

Q: How did the switch fluorescence ratio turn out when ACGTTCACGA was run?
A: 1.12

Q: Which switch fluorescence ratio does the source give for GAATTAGC here?
A: 1

Q: With TTCATATTTA as the sequence, how does the switch fluorescence ratio read?
A: 0.997

Q: How did the switch fluorescence ratio turn out when TCTCGGTGGT was run?
A: 1.06

Q: Which switch fluorescence ratio does the source give for TAGAACATAT here?
A: 1.02

Q: TCGTGAATGG was tested. Which switch fluorescence ratio did it give?
A: 1.02

Q: TATACGGGG was tested. Which switch fluorescence ratio did it give?
A: 1.05

Q: GATTATAAAA was tested. Which switch fluorescence ratio did it give?
A: 0.975

Q: CAAATGAGTT was tested. Which switch fluorescence ratio did it give?
A: 1

Q: GAGGGTTCAC was tested. Which switch fluorescence ratio did it give?
A: 1.01

Q: For ACAGCCGACG, which switch fluorescence ratio is on record?
A: 1.21

Q: Which switch fluorescence ratio does the source give for CACTAAACGA here?
A: 1.11

Q: Which switch fluorescence ratio does the source give for CCGTGGTGTG here?
A: 1.07

Q: CTGAATTTTG was tested. Which switch fluorescence ratio did it give?
A: 0.976

Q: For TTCCACATAA, which switch fluorescence ratio is on record?
A: 1.03

Q: ACGCTAAA was tested. Which switch fluorescence ratio did it give?
A: 1.51

Q: Which switch fluorescence ratio does the source give for AGGCTGATTC here?
A: 0.913

Q: With GTTGCTG as the sequence, how does the switch fluorescence ratio read?
A: 1.05

Q: GACATGTTAA was tested. Which switch fluorescence ratio did it give?
A: 1.01

Q: TGGAATGTTT was tested. Which switch fluorescence ratio did it give?
A: 1
